Among the data in the supplement of paper PMC12067230 are amyloid nucleation score values, retold here.

This is a noisy data set.
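Also: [psi-pin-] Saccharomyces cerevisiae expressing SupN fusions, induced by 100 µM Cu2SO4, selected 7 d at 30 °C without adenine and uracil, scored by deep sequencing of output versus input.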

One data set in a line: amyloid nucleation score relative to library mode (yeast Sup35 reporter selection) (log enrichment difference); higher = more amyloid nucleation; sequences are the first 22 residues of the Bri2 peptide extended by up to 12 random residues. Conditions: random library (experiment): 1;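 active = nucleation score significantly above 0 at FDR 0.05; inactive = not significantly above 0 or absent from output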.
Turning to EASNCFAIRHFENKFAVETLICDNCDDNLYSEKY, the amyloid nucleation score entry is “inactive”. The same measure, in the same setting: to EASNCFAIRHFENKFAVETLICDNESWWSEPSRS belongs “inactive”. Regarding EASNCFAIRHFENKFAVETLICDNTFSM, the amyloid nucleation score entry is “inactive”. As for EASNCFAIRHFENKFAVETLICDNVCNLGRFWAW, the amyloid nucleation score was determined as 7.93. As for EASNCFAIRHFENKFAVETLICDNVNNESEIMIW, the amyloid nucleation score entry is “inactive”. For EASNCFAIRHFENKFAVETLICDNVVACEHEAAV, the amyloid nucleation score entry was “inactive”.

Consider EASNCFAIRHFENKFAVETLICDP, for which the amyloid nucleation score is -0.102. As for EASNCFAIRHFENKFAVETLICDPASS, the amyloid nucleation score was 0.503.

EASNCFAIRHFENKFAVETLICDPIVRFCSNAML had an amyloid nucleation score of 0.936. Regarding EASNCFAIRHFENKFAVETLICDPNVVKGGAVDS, the amyloid nucleation score result was “inactive”. Consider EASNCFAIRHFENKFAVETLICDPPFSSYMTCGM, for which the amyloid nucleation score result is “inactive”. As to EASNCFAIRHFENKFAVETLICDPSMAKGKANGT, the amyloid nucleation score result was “inactive”. As to EASNCFAIRHFENKFAVETLICDPTWKG, the amyloid nucleation score entry was “inactive”. The same measure, in the same setting: to EASNCFAIRHFENKFAVETLICDPVIQVSRRRPK belongs “inactive”; to EASNCFAIRHFENKFAVETLICDPVLL, -0.595; to EASNCFAIRHFENKFAVETLICDQCFRRRRKWQG, 3.85. EASNCFAIRHFENKFAVETLICDQDPSMLACRCG: the amyloid nucleation score result is “inactive”. Still for that read-out and setting: to EASNCFAIRHFENKFAVETLICDQDTEEIRTGRQ belongs -0.732; to EASNCFAIRHFENKFAVETLICDQEATRRRVCPS, “inactive”. For the sequence EASNCFAIRHFENKFAVETLICDQLR, the amyloid nucleation score result was “inactive”. As for EASNCFAIRHFENKFAVETLICDQRRLRPGGPGL, the amyloid nucleation score result is “inactive”. Consider EASNCFAIRHFENKFAVETLICDQVHEHPGTTDA, for which the amyloid nucleation score entry was “inactive”. The same measure, in the same setting: to EASNCFAIRHFENKFAVETLICDQVSTSLAMAAR belongs “inactive”. Same read-out and setting: to EASNCFAIRHFENKFAVETLICDQYRFRCEGQVS belongs “inactive”. Turning to EASNCFAIRHFENKFAVETLICDQYRSLRARRVG, the amyloid nucleation score entry was “inactive”. Sequence EASNCFAIRHFENKFAVETLICDR registered an amyloid nucleation score of -0.401. On to EASNCFAIRHFENKFAVETLICDRAFYVWVTVVK, for which the amyloid nucleation score entry was “inactive”. Still for that read-out and setting: for EASNCFAIRHFENKFAVETLICDRAWCPWDLVIA the value was -0.0194; for EASNCFAIRHFENKFAVETLICDRCVIVCPLYVQ, 6.81; for EASNCFAIRHFENKFAVETLICDRECRMLMYRVS, “inactive”. As for EASNCFAIRHFENKFAVETLICDRFTRLDPYCHK, the amyloid nucleation score amounted to 2.37. In turn, EASNCFAIRHFENKFAVETLICDRGAVVCAKLHR registered an amyloid nucleation score of -0.219. With EASNCFAIRHFENKFAVETLICDRGDHNGCNVRR, the amyloid nucleation score entry is “inactive”. The same measure, in the same setting: for EASNCFAIRHFENKFAVETLICDRKLRRPGGPET the value was “inactive”; for EASNCFAIRHFENKFAVETLICDRKLYSE, “inactive”.

As for EASNCFAIRHFENKFAVETLICDRKWRVKWGLVC, the amyloid nucleation score entry was “inactive”.

EASNCFAIRHFENKFAVETLICDRLEFWYSLIAC had an amyloid nucleation score of -0.444. Take EASNCFAIRHFENKFAVETLICDRLEGRLTEVAA: the amyloid nucleation score entry is “inactive”.

On to EASNCFAIRHFENKFAVETLICDRLGKTETCSV, for which the amyloid nucleation score result is “inactive”. Sequence EASNCFAIRHFENKFAVETLICDRLILSPYFMLI showed an amyloid nucleation score of 7.15. Still for that read-out and setting: to EASNCFAIRHFENKFAVETLICDRLQEAGVRQGG belongs “inactive”.

EASNCFAIRHFENKFAVETLICDRLTRRVLWYGK: the amyloid nucleation score came to 4.81. On the same count and under the same terms, to EASNCFAIRHFENKFAVETLICDRPEEV belongs “inactive”; to EASNCFAIRHFENKFAVETLICDRPRWRLCESPG, “inactive”. Same read-out and setting: to EASNCFAIRHFENKFAVETLICDRPWPLPPCAWW belongs “inactive”; to EASNCFAIRHFENKFAVETLICDRQTK, “inactive”. Turning to EASNCFAIRHFENKFAVETLICDRRLWRYVTKSM, the amyloid nucleation score result is “inactive”. Take EASNCFAIRHFENKFAVETLICDRRTAGPAREKA: the amyloid nucleation score result is “inactive”.

The same data set, now with this note: random library (experiment): 2.
With EASNCFAIRHFENKFAVETLICDMYTDNSASTDG, the amyloid nucleation score entry was “inactive”. Same read-out and setting: for EASNCFAIRHFENKFAVETLICDNANYHMYCSCV the value was 8.04. Sequence EASNCFAIRHFENKFAVETLICDNDKYVGIIRVI gave an amyloid nucleation score of 1.29.

On to EASNCFAIRHFENKFAVETLICDNFVWL, for which the amyloid nucleation score turned out to be 0.571. Consider EASNCFAIRHFENKFAVETLICDNGGIGSSALHV, for which the amyloid nucleation score entry was “inactive”. Take EASNCFAIRHFENKFAVETLICDNGHALSYNWND: the amyloid nucleation score result is “inactive”. Still for that read-out and setting: for EASNCFAIRHFENKFAVETLICDNIEETMYVVCM the value was “inactive”. On to EASNCFAIRHFENKFAVETLICDNIFDILESATY, for which the amyloid nucleation score entry was “inactive”. Take EASNCFAIRHFENKFAVETLICDNINRSYAVWVM: the amyloid nucleation score result was “inactive”. Sequence EASNCFAIRHFENKFAVETLICDNLCSWDGEYMY gave an amyloid nucleation score of 1.21. EASNCFAIRHFENKFAVETLICDNLVLIYGFSEV had an amyloid nucleation score of 6.46.

EASNCFAIRHFENKFAVETLICDNRAMDMRVFKR showed an amyloid nucleation score of 3.14. On the same count and under the same terms, to EASNCFAIRHFENKFAVETLICDNRKEFRTVKVR belongs “inactive”; to EASNCFAIRHFENKFAVETLICDNRKMCEFFLLF, 6.13; to EASNCFAIRHFENKFAVETLICDNRSSITLGLEW, 3.53. Turning to EASNCFAIRHFENKFAVETLICDNVYFCVGMIRG, the amyloid nucleation score was 6.03. Still for that read-out and setting: to EASNCFAIRHFENKFAVETLICDNYQS belongs “inactive”; to EASNCFAIRHFENKFAVETLICDPAFCPRLCVSR, “inactive”; to EASNCFAIRHFENKFAVETLICDPCVSYGSGGVS, “inactive”. Turning to EASNCFAIRHFENKFAVETLICDPFILFGGMASR, the amyloid nucleation score is 7.56.

EASNCFAIRHFENKFAVETLICDQYNQSIMRRSW showed an amyloid nucleation score of 3.33. EASNCFAIRHFENKFAVETLICDRAGEYQCGSWV: the amyloid nucleation score result is “inactive”. Sequence EASNCFAIRHFENKFAVETLICDRCSMTKRSGMG came in with an amyloid nucleation score of 0.503. The sequence EASNCFAIRHFENKFAVETLICDRDSFCWAEFFK displayed an amyloid nucleation score of 4.83. EASNCFAIRHFENKFAVETLICDRFAAGAGFRGA: the amyloid nucleation score result was “inactive”. Take EASNCFAIRHFENKFAVETLICDRGTRLDGLLRG: the amyloid nucleation score entry is “inactive”.

In the case of EASNCFAIRHFENKFAVETLICDRIESLQCMWLV, the amyloid nucleation score was determined as 4.85. EASNCFAIRHFENKFAVETLICDRLLSC: the amyloid nucleation score result is “inactive”. Same read-out and setting: for EASNCFAIRHFENKFAVETLICDRNVY the value was “inactive”; for EASNCFAIRHFENKFAVETLICDRRLDNSCYGRL, “inactive”.

Still in this data set, the particulars now being: random library (experiment): 3.
Turning to EASNCFAIRHFENKFAVETLICDNCVGLVNGHSA, the amyloid nucleation score was found to be 5.01. Take EASNCFAIRHFENKFAVETLICDNGRLMTYSVLG: the amyloid nucleation score result is “inactive”. Turning to EASNCFAIRHFENKFAVETLICDNQSEELLEIVR, the amyloid nucleation score entry was “inactive”. Take EASNCFAIRHFENKFAVETLICDNWR: the amyloid nucleation score result is “inactive”.

On to EASNCFAIRHFENKFAVETLICDPLDNKSGDFKM, for which the amyloid nucleation score entry was “inactive”. Consider EASNCFAIRHFENKFAVETLICDPNRYLLYWIQL, for which the amyloid nucleation score entry is “inactive”. For EASNCFAIRHFENKFAVETLICDPVLPRIGSGQT, the amyloid nucleation score result is “inactive”. EASNCFAIRHFENKFAVETLICDQAIRIRYQNLE: the amyloid nucleation score entry was “inactive”. EASNCFAIRHFENKFAVETLICDQFICDAAMRRW gave an amyloid nucleation score of 7.52. EASNCFAIRHFENKFAVETLICDQGWLPAGDWSW: the amyloid nucleation score result was “inactive”. Take EASNCFAIRHFENKFAVETLICDQLFLQVMSGCV: the amyloid nucleation score entry was “inactive”.

On to EASNCFAIRHFENKFAVETLICDQQQFV, for which the amyloid nucleation score entry is “inactive”. As to EASNCFAIRHFENKFAVETLICDQRVPGPITGPG, the amyloid nucleation score result is “inactive”. The same measure, in the same setting: to EASNCFAIRHFENKFAVETLICDQVRMRPVRALM belongs “inactive”; to EASNCFAIRHFENKFAVETLICDRARAPWSVRCM, “inactive”; to EASNCFAIRHFENKFAVETLICDRARGKVWMVGP, “inactive”.

For EASNCFAIRHFENKFAVETLICDRARKDFIDQYR, the amyloid nucleation score was found to be 1.18.

Take EASNCFAIRHFENKFAVETLICDRCLGDRRGSFR: the amyloid nucleation score entry is “inactive”. As for EASNCFAIRHFENKFAVETLICDRCLRSELGSRS, the amyloid nucleation score result was “inactive”. Regarding EASNCFAIRHFENKFAVETLICDRE, the amyloid nucleation score result was “inactive”.

As for EASNCFAIRHFENKFAVETLICDRLRRCSLHLWL, the amyloid nucleation score entry is “inactive”.

For EASNCFAIRHFENKFAVETLICDRLVEAWAWTGG, the amyloid nucleation score result is “inactive”.

EASNCFAIRHFENKFAVETLICDRQSLSCVRSYM came in with an amyloid nucleation score of 0.908.

EASNCFAIRHFENKFAVETLICDRRDSMMVYEWM: the amyloid nucleation score came out at 4.11.
